Measured values as given in PMC4336329 (PLoS ONE, 2015).
The whole screen tested about 310,000 compounds, of which about 2,200 (0.71%) showed an effect of 50% or more. The effect is printed as a negative number. The list shows a part of the results.

molecular target: human ether-à-go-go-related gene (hERG) potassium channel (human, UniProt Q12809); assay: primary screen, population patch clamp on CHO cells stably expressing hERG
Sequence (Q12809 whole entry, looked up): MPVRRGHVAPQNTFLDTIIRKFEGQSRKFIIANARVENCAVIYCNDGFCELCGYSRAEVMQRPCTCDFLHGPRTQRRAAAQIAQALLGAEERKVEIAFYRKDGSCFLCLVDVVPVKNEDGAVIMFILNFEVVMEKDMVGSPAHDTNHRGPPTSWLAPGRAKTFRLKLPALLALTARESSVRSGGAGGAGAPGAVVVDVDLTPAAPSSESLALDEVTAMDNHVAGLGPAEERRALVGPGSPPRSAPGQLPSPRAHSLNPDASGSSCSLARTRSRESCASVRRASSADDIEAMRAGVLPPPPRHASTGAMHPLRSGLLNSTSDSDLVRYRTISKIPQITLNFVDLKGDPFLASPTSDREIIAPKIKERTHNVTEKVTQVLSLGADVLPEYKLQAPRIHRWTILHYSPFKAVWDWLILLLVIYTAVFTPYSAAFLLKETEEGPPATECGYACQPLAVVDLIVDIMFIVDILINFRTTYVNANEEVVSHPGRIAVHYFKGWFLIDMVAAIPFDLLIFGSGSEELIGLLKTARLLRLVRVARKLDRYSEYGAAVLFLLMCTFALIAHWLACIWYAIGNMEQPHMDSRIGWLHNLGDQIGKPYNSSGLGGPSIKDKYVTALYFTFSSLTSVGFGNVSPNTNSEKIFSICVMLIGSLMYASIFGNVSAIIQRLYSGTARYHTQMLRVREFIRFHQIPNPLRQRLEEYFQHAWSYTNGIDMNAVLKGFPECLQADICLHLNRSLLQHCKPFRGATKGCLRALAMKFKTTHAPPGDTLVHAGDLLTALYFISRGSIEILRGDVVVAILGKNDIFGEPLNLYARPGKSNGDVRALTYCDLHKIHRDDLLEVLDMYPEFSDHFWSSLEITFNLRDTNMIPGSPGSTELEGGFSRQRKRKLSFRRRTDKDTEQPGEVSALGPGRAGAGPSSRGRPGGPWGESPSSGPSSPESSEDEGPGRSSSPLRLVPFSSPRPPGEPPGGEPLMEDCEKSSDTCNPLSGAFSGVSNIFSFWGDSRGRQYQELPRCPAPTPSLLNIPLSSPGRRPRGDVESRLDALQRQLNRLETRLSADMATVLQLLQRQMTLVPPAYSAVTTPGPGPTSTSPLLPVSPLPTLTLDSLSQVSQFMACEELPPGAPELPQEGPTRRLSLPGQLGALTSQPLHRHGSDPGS

| Compound | hERG current change (%, negative = inhibition) at 1uM [%] |
| --- | --- |
| CCn1c(SCC(=O)Nc2ccc(C)cc2)nc2nc3c(cc2c1=O)CCCC3 | -1.33 |
| CCOC(=O)c1sc(/N=C/N(C)C)c(C(=O)OCC)c1C | 1.61 |
| COc1ccccc1/C=N/NC(=O)c1ccccc1Cl | 5.78 |
| Cc1cccc(C(=O)NCC(=O)OCC(=O)NCCNC(=O)COC(=O)CNC(=O)c2cccc(C)c2)c1 | 21.2 |
| CCOC(=O)C1=C(C)NC(SCC(N)=O)=C(C#N)C1c1ccccc1 (stereo not drawn) | 4.67 |
| O=C(c1ccc([N+](=O)[O-])cc1)N1CCC(Cc2ccccc2)CC1 | -25.2 |
| Cc1cccc(CCNC(=O)CCCOc2cc(=O)n(C)c3ccccc23)c1 | -7.98 |
| COc1ccc(S(=O)(=O)N2CCCCC2)cc1NC(=O)CN1C(=O)NC(C)(C2CC2)C1=O (stereo not drawn) | 1.85 |
| O=C1C(Cl)=C(NCCN2CCOCC2)C(=O)c2ccccc21 | 10.5 |
| COc1ccc(Br)cc1-c1nc(C)c(C(C)=O)n1O | 12.8 |
| Nn1c(SCC(=O)NC(=O)NCc2ccccc2)nnc1C1CC1 | 12.5 |
| Cc1nn(CCCC(=O)N2CCN(c3ccc(F)cc3)CC2)c(C)c1[N+](=O)[O-] | -9.6 |
| O=C(CSc1nc2c(cnn2-c2ccc(F)cc2)c(=O)[nH]1)N1CCCc2ccccc21 | 10.2 |
| CC(OC(=O)Cn1cnc2c1c(=O)n(C)c(=O)n2C)C(=O)N(C)c1ccccc1 (stereo not drawn) | 15.7 |
| O=[N+]([O-])c1ccc(N2CCN(c3ccccn3)CC2)c(Cl)c1 | 3.33 |
| COc1ccc(F)cc1S(=O)(=O)NCC(c1ccco1)N1CCc2ccccc2C1 (stereo not drawn) | -4 |
| O=C(Nc1cccc(S(=O)(=O)c2cccc(NC(=O)c3ccco3)c2)c1)c1ccco1 | -3.4 |
| CCCCNC(=O)CCn1c(=O)c2ccccc2n(CC(=O)N2CC(C)CC(C)C2)c1=O (stereo not drawn) | 3.49 |
| CCOc1ccc(C(=O)Nc2c3c(nn2-c2ccccc2)CS(=O)(=O)C3)cc1 | 12.9 |
| CCc1noc(C)c1C(=O)NNC(=O)c1cc(OC)c(OC)c(OC)c1 | -1.71 |
| CC(Sc1ccccc1)C(=O)NN=C1CCCCCC1 (stereo not drawn) | 8.72 |

| Compound | hERG current change (%, negative = inhibition) at 1uM [%] |
| --- | --- |
| Cn1nc(C(=O)OCC(=O)N2CCc3ccccc32)c2ccccc2c1=O | 9.88 |
| COc1ccc(C=O)cc1Cn1ccnc1C.Cl | 15.4 |
| CC(=O)NC1=NN(C(C)=O)C(c2cccc([N+](=O)[O-])c2)S1 (stereo not drawn) | 11.7 |
| CCS(=O)(=O)Nc1cccc(C2=NN(S(=O)(=O)c3ccc(C)cc3)C(c3cccs3)C2)c1 (stereo not drawn) | 4.61 |
| CC(=O)c1ccc(NC(=O)N[C@@H](CC(C)C)C(=O)O)cc1 | -1.32 |
| CCOC(=O)c1c(C)[nH]c(C)c1C(=O)COC(=O)c1ccc(Cl)c(S(=O)(=O)NCc2ccccc2)c1 | 10.1 |
| Cc1ccc(CNC(=O)C2CC(c3ccccc3C(F)(F)F)=NO2)cc1 (stereo not drawn) | 3.89 |
| O=S(=O)(c1ccccc1)n1c(C(O)c2ccccn2)cc2ccccc21 (stereo not drawn) | 6.94 |
| CCc1ccc(-c2cc(C)no2)cc1S(=O)(=O)N1CCC(C)CC1 | 8.92 |
| O=C(N[C@@H](Cc1ccccc1)C(=O)NCc1ccc(F)cc1)C1CCNCC1 | 25.4 |
| CCOC(=O)CC(=O)Nc1ccc(C(=O)OCC)cc1 | -6.42 |
| COc1cc(NC(=S)NCCC(c2ccccc2)c2ccccc2)c(OC)cc1Cl | 6.29 |
| COc1ccccc1-n1c(SCC(=O)NCC2CCCO2)nc2c([nH]c3ccccc32)c1=O (stereo not drawn) | 12.8 |
| Cc1ccc(-c2cnc(N)n2C)cc1C | 15.4 |
| CC[n+]1c(C)sc2sc3ccccc3c21.[I-] | 8.6 |
| COc1ccc(OC)c(C(=O)NC(CC(N)=O)c2ccc(NCCN3CCCCC3)c([N+](=O)[O-])c2)c1 (stereo not drawn) | 2.05 |
| O=S(=O)(N=S(N1CCCCC1)N1CCCCC1)c1ccccc1 | -3.22 |
| CCOC(=O)C(OC(=O)c1sc(=S)n(C)c1C)C(C)=O (stereo not drawn) | 18 |
| COc1ccc(S(=O)(=O)NC2CC(C)(C)NC(C)(C)C2)cc1 | 7.99 |
| COc1ccc(C(=O)NCc2ccc(-c3nc4ccccc4s3)cc2)cc1OC | 4.21 |
| COc1ccc(-c2c[n+]3c(n2-c2ccccc2)SCC3)cc1OC.[Br-] | 10.6 |
